Assay results: paper PMC7819943, “Rice protein-binding microarrays: a tool to detect cis-acting elements near promoter regions in rice”
The other results are listed elsewhere or left out.

Molecular target: T1, OsWOX13 (Oryza sativa, UniProt Q5QMM3 1-267)
T1 sequence: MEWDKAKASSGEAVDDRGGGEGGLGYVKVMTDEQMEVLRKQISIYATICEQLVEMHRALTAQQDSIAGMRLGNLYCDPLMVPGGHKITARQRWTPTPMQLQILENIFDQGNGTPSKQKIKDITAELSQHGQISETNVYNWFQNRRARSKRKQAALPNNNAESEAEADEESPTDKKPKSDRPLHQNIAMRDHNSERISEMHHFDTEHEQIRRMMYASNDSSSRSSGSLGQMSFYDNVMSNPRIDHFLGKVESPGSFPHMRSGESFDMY
Assay: protein-binding microarray (RPBM); PBS, 2% BSA, 51.3 ng/ul salmon testes DNA, 50 uM zinc acetate, 200 nM TF, 25 C, 1 h; high values mean tight binding
Settings: protein: recombinant; tags: N-terminal polyhistidine and DsRed monomer fusion (pET32a); label: CyDye5-dUTP incorporated in the synthesized complementary strand; 3' TTTTT single-stranded linker to array surface; dsDNA, one strand shown
Outline: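 Transcription factors were each fused at the N-terminus to a polyhistidine tag plus DsRed and expressed in E. coli BL21-CodonPlus before Ni–NTA purification. Binding to a double-stranded custom Agilent array was carried out with 200 nM protein at 25 °C for 1 h in PBS, 2% BSA, salmon testes DNA and 50 µM zinc acetate. The binding signal is per-feature fluorescence intensity, in arbitrary units, on an Axon 4000B scanner.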

Sequence | binding signal
TCAGTCCCCAAACAAATTATAATTTTGCATCATATTTTACCGGAGTCACCTAGTGCAG | 6390 fluorescence intensity (a.u.)
ACATTGATCACCCCTTTTCATCTTCTCAGTCAACAGGTCTCGGAGTCACCTAGTGCAG | 3240 fluorescence intensity (a.u.)
AGAGTTCTGATTGAATTTGAACAGAAGCGGTGCTTTTGGACGGAGTCACCTAGTGCAG | 38800 fluorescence intensity (a.u.)
CTTGACGAGAAGACGTTCAGGACGAGCGGCGATGGCGGCCCGGAGTCACCTAGTGCAG | 7170 fluorescence intensity (a.u.)
TGCGGGTTGTTTTGATTGACAATTTAGTGTTGGTGTTGTTCGGAGTCACCTAGTGCAG | 26700 fluorescence intensity (a.u.)
ATGATGATTGACTTATGTGAATATATTGTCTATATATGCACGGAGTCACCTAGTGCAG | 60300 fluorescence intensity (a.u.)
CAAAATGCATAACTAATTTTATTTTAAGACAGAAAGAGCACGGAGTCACCTAGTGCAG | 12700 fluorescence intensity (a.u.)
CTAATTAACACAAAGATATACTTTTCCTCCTATATCCACTCGGAGTCACCTAGTGCAG | 11000 fluorescence intensity (a.u.)
CATCCTAGATTGCTATATTCTGGAGGGAGTAATTAGGAGTCGGAGTCACCTAGTGCAG | 7180 fluorescence intensity (a.u.)
CATAGTATACTAATTATATTTAGATTATAGTGTAATAACACGGAGTCACCTAGTGCAG | 7370 fluorescence intensity (a.u.)
AAGTGATTATCTATTTCTACTTTTGGTCCAATAGTTATTGCGGAGTCACCTAGTGCAG | 30400 fluorescence intensity (a.u.)
ATTTGGATTGGTTTTCTACTAAATTGATGTCCTTAAAGCTCGGAGTCACCTAGTGCAG | 19600 fluorescence intensity (a.u.)
TGACTAATTAGAATCCCTCCCCGTATGAATGCAGCTCATACGGAGTCACCTAGTGCAG | 22400 fluorescence intensity (a.u.)
GTAATTGCTAATGGGCCTTTCGTCTTAGATGGGCCTCCAACGGAGTCACCTAGTGCAG | 4760 fluorescence intensity (a.u.)
GGAGTGCCAATCAAAACCCAGATGTACCCATCAACAGCCACGGAGTCACCTAGTGCAG | 11400 fluorescence intensity (a.u.)
TCTACTGATTTATATTCTTGTCTTATCACATTATCACCATCGGAGTCACCTAGTGCAG | 23600 fluorescence intensity (a.u.)
AGCAATTGAGATAATCAAAACATTTTAGTTTGTTAGAGAGCGGAGTCACCTAGTGCAG | 12200 fluorescence intensity (a.u.)
ATTTCTGTGATTACTCAGTGGTTGCCATGGCGTCTGTCTGCGGAGTCACCTAGTGCAG | 8160 fluorescence intensity (a.u.)
ATCCAAATCAACGGTCCAACATTACTTGCCAGTTAGCCACCGGAGTCACCTAGTGCAG | 3320 fluorescence intensity (a.u.)
TCTAATTTTGTTGTGGATGTAAATCTTGTGCCTTCTTAAACGGAGTCACCTAGTGCAG | 5910 fluorescence intensity (a.u.)
TTTTATAATTTATTCAAATAGTACATTATTTATAATGAGTCGGAGTCACCTAGTGCAG | 13000 fluorescence intensity (a.u.)

Sequence | binding signal
ACTCAATAATTTTCTTTTCACGAACTAAACCAGGCCTTAGCGGAGTCACCTAGTGCAG | 6340 fluorescence intensity (a.u.)
AGTTGAAAATGTGGGTCAATTATCCCTCTAAATGTGGGTGCGGAGTCACCTAGTGCAG | 3230 fluorescence intensity (a.u.)
ATCTGATTTGATTTGATTTCGTACACCAGTAGCTTCAACCCGGAGTCACCTAGTGCAG | 59800 fluorescence intensity (a.u.)
CATAGATTTCTAATTATTGTTTGCAAGTGAAAATTTAGACCGGAGTCACCTAGTGCAG | 29700 fluorescence intensity (a.u.)
TTGTGACCCAAATTGACTATGTGATCTTGAAGAGTTGTGTCGGAGTCACCTAGTGCAG | 10100 fluorescence intensity (a.u.)
TCCGTGATTAATGAAATCATCGCGTTGAGCTAATCTCGCTCGGAGTCACCTAGTGCAG | 23400 fluorescence intensity (a.u.)
GAGATTGGAAATGATCGAATTGTTCCGGCAGCGTGGCAGCCGGAGTCACCTAGTGCAG | 20900 fluorescence intensity (a.u.)
ATATGTGGGGTGATTGCTGGTTGATCCGTGCCCCGGGTGTCGGAGTCACCTAGTGCAG | 6620 fluorescence intensity (a.u.)
GGGCCTGTTAATTAGGCTTAACCAAGTCTGAATCTTACTTCGGAGTCACCTAGTGCAG | 5300 fluorescence intensity (a.u.)
TGGCTAACCTTAAATTTGTTAGTGGGATGGGGCAGATGGACGGAGTCACCTAGTGCAG | 3610 fluorescence intensity (a.u.)
CGCATCTGTCAAACTGTCAATGTGTCATTATATTGTGTGTCGGAGTCACCTAGTGCAG | 3520 fluorescence intensity (a.u.)
AACTGATTTTGTGAGTAGAATTGTGACAAACTCAACGACACGGAGTCACCTAGTGCAG | 12400 fluorescence intensity (a.u.)
TCAAATTTGCGTTGTGACAACTTTTCTTAAGAAATACACTCGGAGTCACCTAGTGCAG | 9000 fluorescence intensity (a.u.)
ATTAAGAGATTACTAATCTACACTTTAAAATAAACGGTCGCGGAGTCACCTAGTGCAG | 4430 fluorescence intensity (a.u.)
TTCCTGATTAACCGGATGAAACGGGAAGCTGCTAGTTTGTCGGAGTCACCTAGTGCAG | 22000 fluorescence intensity (a.u.)
CCAACTTCTGTCAATCTAATATCAGAAGTTCAGAACAAAGCGGAGTCACCTAGTGCAG | 8780 fluorescence intensity (a.u.)
CTCCTAAATTTAATATTAATATATAAAGCTGTATATAAAACGGAGTCACCTAGTGCAG | 7880 fluorescence intensity (a.u.)
AGCTTAAATTTAACTCTAAGAGTGGGTCTAAAGTGAAGATCGGAGTCACCTAGTGCAG | 4970 fluorescence intensity (a.u.)
CTTATCACATACAGCTGATTATCATTAAACTCCTAACTTCCGGAGTCACCTAGTGCAG | 7410 fluorescence intensity (a.u.)
CTAAATTACCTAGAAAATGCTTTTAAATGATAAATGGGCCCGGAGTCACCTAGTGCAG | 22100 fluorescence intensity (a.u.)
GCCTTATTACCATTTTCAGTGTTTACCTGATTTGAAAGCTCGGAGTCACCTAGTGCAG | 3490 fluorescence intensity (a.u.)
